According to the BET-seq Pho4 binding data (Le et al. 2018):
This is one part of the list. These are noisy estimates, calculated here from bound and input reads.

These sequences were tested against T1, Pho4 (S. cerevisiae) (UniProt P07270) (assay: relative binding free energy (BET-seq); higher = weaker binding). Details: reference: library average.
T1 sequence: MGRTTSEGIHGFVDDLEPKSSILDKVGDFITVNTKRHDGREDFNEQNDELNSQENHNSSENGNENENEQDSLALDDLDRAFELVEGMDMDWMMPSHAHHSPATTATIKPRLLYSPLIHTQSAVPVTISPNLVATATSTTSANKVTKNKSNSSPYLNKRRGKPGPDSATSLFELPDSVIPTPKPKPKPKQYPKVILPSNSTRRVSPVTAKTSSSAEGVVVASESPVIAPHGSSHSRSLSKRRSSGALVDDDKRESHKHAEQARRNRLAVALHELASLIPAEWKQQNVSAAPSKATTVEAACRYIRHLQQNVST
For GGCGCCACGTGGCGTG, the “relative binding free energy” value was -0.17 kcal/mol.
TGGAACACGTGGGCTG was tested, and the “relative binding free energy” value was -0.18 kcal/mol.
In the case of TGTCGCACGTGAGAAG, the “relative binding free energy” value is reported as 0.28 kcal/mol.
For TGGTGCACGTGTGGTT, the “relative binding free energy” value was 0.01 kcal/mol.
For TTACTCACGTGGGTCG, the “relative binding free energy” value was 0.21 kcal/mol.
GGGGGCACGTGTATCT was tested, and the “relative binding free energy” value was -0.08 kcal/mol.
For CTAATCACGTGATAGG, the “relative binding free energy” value was 0.3 kcal/mol.
GGGAGCACGTGTTGCT was tested, and the “relative binding free energy” value was -0.05 kcal/mol.
In the case of GCAATCACGTGGGCGG, the “relative binding free energy” value is reported as 0.11 kcal/mol.
In the case of AGACTCACGTGTTTAT, the “relative binding free energy” value is reported as 0.34 kcal/mol.
With ATGGGCACGTGGGGCG the “relative binding free energy” value was -0.3 kcal/mol.
With TTGATCACGTGTGTCT the “relative binding free energy” value was 0.07 kcal/mol.
With GTAAGCACGTGTTTAG the “relative binding free energy” value was 0.04 kcal/mol.
In the case of GGTGACACGTGAATAT, the “relative binding free energy” value is reported as 0.32 kcal/mol.
With TTTGGCACGTGTTCGG the “relative binding free energy” value was -0.01 kcal/mol.
For CAGTGCACGTGGTGTG, the “relative binding free energy” value was 0.03 kcal/mol.
GTGATCACGTGTGAAA was tested, and the “relative binding free energy” value was 0.18 kcal/mol.
For AATCGCACGTGTGGAG, the “relative binding free energy” value was -0.03 kcal/mol.
With TATGTCACGTGGAATG the “relative binding free energy” value was 0.09 kcal/mol.
In the case of TGGTCCACGTGAAGTT, the “relative binding free energy” value is reported as 0.18 kcal/mol.
TATATCACGTGGGTAT was tested, and the “relative binding free energy” value was -0.03 kcal/mol.
In the case of AGCGCCACGTGTGGGT, the “relative binding free energy” value is reported as -0.18 kcal/mol.
For GTTGCCACGTGGGGGG, the “relative binding free energy” value was -0.27 kcal/mol.
For CTGGTCACGTGTTGGC, the “relative binding free energy” value was 0.17 kcal/mol.
For GTGCACACGTGAAAGG, the “relative binding free energy” value was 0.39 kcal/mol.
CTTGACACGTGTATGG was tested, and the “relative binding free energy” value was -0.02 kcal/mol.
For ATTTTCACGTGAACTT, the “relative binding free energy” value was 0.37 kcal/mol.
With GGTGACACGTGGTTAT the “relative binding free energy” value was 0.03 kcal/mol.
In the case of CGGTCCACGTGTTAGG, the “relative binding free energy” value is reported as 0.1 kcal/mol.
With GGTGGCACGTGACTTG the “relative binding free energy” value was 0.13 kcal/mol.
With AGTGACACGTGGTGCT the “relative binding free energy” value was -0.11 kcal/mol.
GCTTTCACGTGAGAGG was tested, and the “relative binding free energy” value was 0.46 kcal/mol.
For GCGGGCACGTGGTGGA, the “relative binding free energy” value was -0.05 kcal/mol.
With GGCGTCACGTGGCGGC the “relative binding free energy” value was 0.03 kcal/mol.
With TTGTACACGTGCTCAG the “relative binding free energy” value was 0.11 kcal/mol.
With AGTGTCACGTGGTAAC the “relative binding free energy” value was 0 kcal/mol.
With AATTTCACGTGTATTT the “relative binding free energy” value was 0.23 kcal/mol.
GATATCACGTGAGTTA was tested, and the “relative binding free energy” value was 0.41 kcal/mol.
GCTTGCACGTGTTGAT was tested, and the “relative binding free energy” value was 0.02 kcal/mol.
GTAGACACGTGTTCTG was tested, and the “relative binding free energy” value was 0.07 kcal/mol.
With AATAACACGTGGATTT the “relative binding free energy” value was 0.06 kcal/mol.
GTGGGCACGTGATCTT was tested, and the “relative binding free energy” value was 0.12 kcal/mol.
For TTGGACACGTGATGTC, the “relative binding free energy” value was 0.22 kcal/mol.
In the case of ACTTTCACGTGGTAGT, the “relative binding free energy” value is reported as 0.33 kcal/mol.
With TTAGACACGTGTTTGT the “relative binding free energy” value was -0.06 kcal/mol.
In the case of TAGAGCACGTGGGCGT, the “relative binding free energy” value is reported as -0.26 kcal/mol.
GGGGCCACGTGTCTAG was tested, and the “relative binding free energy” value was 0.04 kcal/mol.
In the case of GGATTCACGTGGTCGA, the “relative binding free energy” value is reported as 0.33 kcal/mol.
With TGTAGCACGTGCCGTG the “relative binding free energy” value was -0.18 kcal/mol.
With GTGGACACGTGCTTTA the “relative binding free energy” value was -0.02 kcal/mol.
With GGGGGCACGTGAGCCG the “relative binding free energy” value was 0.1 kcal/mol.
TAGGGCACGTGCGATG was tested, and the “relative binding free energy” value was -0.2 kcal/mol.
In the case of GGTGACACGTGATGCG, the “relative binding free energy” value is reported as 0.23 kcal/mol.
TTGCTCACGTGTATGA was tested, and the “relative binding free energy” value was 0.15 kcal/mol.
For TGGTTCACGTGACTAT, the “relative binding free energy” value was 0.35 kcal/mol.
In the case of TTAATCACGTGCGTGT, the “relative binding free energy” value is reported as 0.03 kcal/mol.
For TGTGGCACGTGCGGTA, the “relative binding free energy” value was -0.09 kcal/mol.
With CGCATCACGTGTGGGG the “relative binding free energy” value was 0.28 kcal/mol.
In the case of TGAAGCACGTGCTGAT, the “relative binding free energy” value is reported as 0.01 kcal/mol.
ACGGTCACGTGTTTTG was tested, and the “relative binding free energy” value was 0.06 kcal/mol.
For TGAGACACGTGGAGGC, the “relative binding free energy” value was 0.02 kcal/mol.
GTGCACACGTGGGGAG was tested, and the “relative binding free energy” value was 0.01 kcal/mol.
For GTGTGCACGTGAAAGG, the “relative binding free energy” value was 0.15 kcal/mol.
GGGATCACGTGTTTGA was tested, and the “relative binding free energy” value was 0.08 kcal/mol.
TGAGGCACGTGTGCTT was tested, and the “relative binding free energy” value was -0.03 kcal/mol.
CGTATCACGTGTGTAG was tested, and the “relative binding free energy” value was 0.13 kcal/mol.
GTTAGCACGTGGGACT was tested, and the “relative binding free energy” value was -0.01 kcal/mol.
With GTCATCACGTGTGTGT the “relative binding free energy” value was 0.15 kcal/mol.
With TGGGGCACGTGGCCCG the “relative binding free energy” value was -0.25 kcal/mol.
GTGGCCACGTGGTGGT was tested, and the “relative binding free energy” value was -0.01 kcal/mol.
TACCGCACGTGGTGGG was tested, and the “relative binding free energy” value was -0.05 kcal/mol.
With TCTTGCACGTGTTATA the “relative binding free energy” value was -0.06 kcal/mol.
For TCAGTCACGTGCTTGG, the “relative binding free energy” value was 0.02 kcal/mol.
GCTTGCACGTGAGGCG was tested, and the “relative binding free energy” value was 0.2 kcal/mol.
For TAGTTCACGTGCGTGG, the “relative binding free energy” value was 0.09 kcal/mol.
With AATCACACGTGGGTGT the “relative binding free energy” value was -0.02 kcal/mol.
ATTTGCACGTGAGTAT was tested, and the “relative binding free energy” value was 0.21 kcal/mol.
In the case of AGGTGCACGTGATCTG, the “relative binding free energy” value is reported as 0.05 kcal/mol.
With CTTATCACGTGGTTAG the “relative binding free energy” value was 0.13 kcal/mol.
CAGTGCACGTGTGGCT was tested, and the “relative binding free energy” value was 0.02 kcal/mol.
With GGTCACACGTGTTGGC the “relative binding free energy” value was 0.17 kcal/mol.
For CTTTTCACGTGGTGGG, the “relative binding free energy” value was 0.14 kcal/mol.
For GTTGGCACGTGTCGTT, the “relative binding free energy” value was 0.04 kcal/mol.
GGCATCACGTGTTTTA was tested, and the “relative binding free energy” value was 0.24 kcal/mol.
With TTAGTCACGTGGGTAC the “relative binding free energy” value was 0.08 kcal/mol.
With TGCGGCACGTGATTTA the “relative binding free energy” value was 0 kcal/mol.
For TTATGCACGTGGCCGT, the “relative binding free energy” value was -0.1 kcal/mol.
With TGAGGCACGTGTAACG the “relative binding free energy” value was 0.04 kcal/mol.
For ATTTACACGTGTTTCT, the “relative binding free energy” value was -0.03 kcal/mol.
For ATTTACACGTGCAGTG, the “relative binding free energy” value was 0.19 kcal/mol.
AGTTGCACGTGCTTTA was tested, and the “relative binding free energy” value was -0.12 kcal/mol.
For CGTGTCACGTGTGTTA, the “relative binding free energy” value was 0.14 kcal/mol.
With GATAGCACGTGATAGT the “relative binding free energy” value was 0.13 kcal/mol.
In the case of GTGGGCACGTGCGATA, the “relative binding free energy” value is reported as -0.14 kcal/mol.
TTTAGCACGTGAGTGG was tested, and the “relative binding free energy” value was 0.15 kcal/mol.
In the case of TAACGCACGTGTGGGA, the “relative binding free energy” value is reported as -0.02 kcal/mol.
With CGTGGCACGTGCTGAG the “relative binding free energy” value was -0.16 kcal/mol.
For TTGTTCACGTGCGCGT, the “relative binding free energy” value was 0.16 kcal/mol.
ATTATCACGTGCGTTG was tested, and the “relative binding free energy” value was 0.03 kcal/mol.
In the case of TAAGACACGTGAGGGT, the “relative binding free energy” value is reported as 0.16 kcal/mol.
With AGGATCACGTGTATTA the “relative binding free energy” value was 0.07 kcal/mol.
With GAAATCACGTGGTTAG the “relative binding free energy” value was 0.26 kcal/mol.
In the case of GGTTGCACGTGTCGGT, the “relative binding free energy” value is reported as 0.01 kcal/mol.
In the case of ATAGGCACGTGGTATA, the “relative binding free energy” value is reported as -0.18 kcal/mol.
With CAGAGCACGTGTGTTG the “relative binding free energy” value was 0.04 kcal/mol.
CTTTACACGTGTTTAT was tested, and the “relative binding free energy” value was -0.1 kcal/mol.
With AGGCTCACGTGGTCGG the “relative binding free energy” value was 0.15 kcal/mol.
In the case of AAGAGCACGTGGGTAA, the “relative binding free energy” value is reported as -0.23 kcal/mol.
With ATTTTCACGTGGTTGC the “relative binding free energy” value was 0.28 kcal/mol.
In the case of ATGTGCACGTGACAGT, the “relative binding free energy” value is reported as 0.16 kcal/mol.
CATTTCACGTGGTTTA was tested, and the “relative binding free energy” value was 0.3 kcal/mol.
ATCATCACGTGTGTAT was tested, and the “relative binding free energy” value was 0.05 kcal/mol.
For TCTTGCACGTGGTGAT, the “relative binding free energy” value was -0.1 kcal/mol.
CAAGGCACGTGGGGTA was tested, and the “relative binding free energy” value was -0.2 kcal/mol.
With GTTAGCACGTGGTACG the “relative binding free energy” value was -0.14 kcal/mol.
